Reference: article PMC4275180
Numbering of substitutions follows the chain as printed. These are yes or no findings as the source states them, for the method shown. In cells and extracts the contact can be indirect. Some entries that bind do so weakly or less than the wild type. Where a sequence is shown, tags or fusion partners need not be part of it.

Chains of the proteins cited; added tags and fusions are not shown.
UniProt P42224: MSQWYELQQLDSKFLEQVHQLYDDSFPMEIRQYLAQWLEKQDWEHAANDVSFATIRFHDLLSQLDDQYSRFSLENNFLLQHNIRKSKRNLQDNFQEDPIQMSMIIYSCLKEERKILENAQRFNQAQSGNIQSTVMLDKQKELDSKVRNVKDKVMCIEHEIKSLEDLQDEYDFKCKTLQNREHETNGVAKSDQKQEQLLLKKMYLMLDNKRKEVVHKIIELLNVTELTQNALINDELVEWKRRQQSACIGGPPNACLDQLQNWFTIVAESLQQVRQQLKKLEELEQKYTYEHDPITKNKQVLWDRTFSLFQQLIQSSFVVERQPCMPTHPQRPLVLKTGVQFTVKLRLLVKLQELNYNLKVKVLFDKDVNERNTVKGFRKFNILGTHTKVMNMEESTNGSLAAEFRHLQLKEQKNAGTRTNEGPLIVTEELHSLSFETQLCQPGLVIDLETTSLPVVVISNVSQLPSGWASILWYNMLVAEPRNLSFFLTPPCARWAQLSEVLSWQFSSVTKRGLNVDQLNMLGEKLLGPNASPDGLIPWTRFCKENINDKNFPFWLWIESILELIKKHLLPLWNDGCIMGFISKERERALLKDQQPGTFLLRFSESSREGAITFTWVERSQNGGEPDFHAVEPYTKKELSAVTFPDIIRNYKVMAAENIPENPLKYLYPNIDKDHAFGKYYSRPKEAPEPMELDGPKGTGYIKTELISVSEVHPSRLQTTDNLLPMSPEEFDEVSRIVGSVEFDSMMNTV

How the values were obtained:
[1] = target: T1, FLAG-KDM3A-S265A, full length (UniProt Q9Y4C1); assay: co-IP; FLAG-tagged KDM3A constructs transfected into Jurkat cells, with or without heat shock (42°C); whole cell extract, IP anti-FLAG; endogenous partner (Stat1, p-MSK1) by western blot
T1 sequence: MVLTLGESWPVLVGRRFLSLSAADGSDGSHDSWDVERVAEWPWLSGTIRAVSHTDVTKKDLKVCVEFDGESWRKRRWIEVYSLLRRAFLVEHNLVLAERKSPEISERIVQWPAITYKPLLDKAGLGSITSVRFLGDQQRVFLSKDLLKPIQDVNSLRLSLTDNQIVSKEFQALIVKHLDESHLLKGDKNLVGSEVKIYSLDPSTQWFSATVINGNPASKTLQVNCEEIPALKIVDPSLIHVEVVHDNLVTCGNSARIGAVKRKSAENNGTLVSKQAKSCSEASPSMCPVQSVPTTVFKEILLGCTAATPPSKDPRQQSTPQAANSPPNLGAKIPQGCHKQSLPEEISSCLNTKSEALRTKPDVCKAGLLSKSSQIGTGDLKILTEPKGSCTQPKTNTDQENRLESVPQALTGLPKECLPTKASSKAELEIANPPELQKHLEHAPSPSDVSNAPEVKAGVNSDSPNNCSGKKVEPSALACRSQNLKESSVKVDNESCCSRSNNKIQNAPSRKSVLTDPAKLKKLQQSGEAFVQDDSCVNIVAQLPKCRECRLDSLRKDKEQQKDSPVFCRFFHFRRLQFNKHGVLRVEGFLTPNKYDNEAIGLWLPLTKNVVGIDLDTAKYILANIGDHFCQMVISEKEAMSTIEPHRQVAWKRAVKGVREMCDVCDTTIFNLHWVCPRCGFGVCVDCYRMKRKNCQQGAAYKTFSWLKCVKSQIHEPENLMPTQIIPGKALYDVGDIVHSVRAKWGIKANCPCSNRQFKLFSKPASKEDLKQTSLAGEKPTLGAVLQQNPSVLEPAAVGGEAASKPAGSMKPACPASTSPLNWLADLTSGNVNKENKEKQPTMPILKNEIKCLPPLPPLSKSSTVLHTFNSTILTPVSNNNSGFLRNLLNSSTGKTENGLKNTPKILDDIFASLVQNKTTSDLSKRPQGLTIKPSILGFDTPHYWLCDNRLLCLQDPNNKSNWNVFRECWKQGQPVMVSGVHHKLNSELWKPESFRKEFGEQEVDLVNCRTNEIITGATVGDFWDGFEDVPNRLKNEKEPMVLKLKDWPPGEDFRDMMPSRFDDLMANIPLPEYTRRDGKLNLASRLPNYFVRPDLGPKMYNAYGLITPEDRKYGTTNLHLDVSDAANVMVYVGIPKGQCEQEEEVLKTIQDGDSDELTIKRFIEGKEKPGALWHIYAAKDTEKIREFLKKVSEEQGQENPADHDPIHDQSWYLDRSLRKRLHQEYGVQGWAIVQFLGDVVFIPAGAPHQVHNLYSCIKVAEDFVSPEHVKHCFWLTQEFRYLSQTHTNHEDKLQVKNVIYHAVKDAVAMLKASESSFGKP

[2] = target: T2, FLAG-KDM3A-S264D, full length (UniProt Q9Y4C1); assay: as above
T2 sequence: T1 sequence with S264D, A265S

binding [1]: binds | binding [2]: binds
Substance: Stat1 (endogenous) (from UniProt P42224 1-750)
